# The supplement of paper PMC8728848
# This is one part of the list.
# Experiments:
# Test in all cases: glycan array binding signal (z-score within array); higher = stronger binding
# Settings in all cases: glycan notation: IUPAC condensed, linker removed
# [1] = biological target: Neu5Ac(a2-3)6dGal(b1-4)[Fuc(a1-3)]GlcNAc(b1-3)Gal
# Summary of the method: (§1)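 Glycan array binding is given as a within-array Z-score, which can be read as non-binding when negative. The arrays, 3228 of them, came from the Consortium for Functional Glycomics database and were retained only where the protein sequence was available. Z-scores were averaged across arrays of the same protein sequence at different concentrations or buffers and across linkers.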
# [2] = biological target: Neu5Ac(a2-3)Gal
# Summary of the method: as §1
# [3] = biological target: Neu5Ac(a2-3)Gal(b1-3)6dGalNAc
# Summary of the method: as §1
# [4] = biological target: Neu5Ac(a2-3)Gal(b1-3)GalNAc
# Summary of the method: as §1
# [5] = biological target: Neu5Ac(a2-3)Gal(b1-3)GalNAc(b1-3)Gal(a1-4)Gal(b1-4)Glc
# Summary of the method: as §1
# [6] = biological target: Neu5Ac(a2-3)Gal(b1-3)GalNAc(b1-3)Gal(b1-4)GlcNAc
# Summary of the method: as §1
# [7] = biological target: Neu5Ac(a2-3)Gal(b1-3)GalNAc(b1-4)[Neu5Ac(a2-3)]Gal(b1-4)Glc
# Summary of the method: as §1
# [8] = biological target: Neu5Ac(a2-3)Gal(b1-3)GalNAc(b1-4)[Neu5Ac(a2-8)Neu5Ac(a2-3)]Gal(b1-4)Glc
# Summary of the method: as §1
# [9] = biological target: Neu5Ac(a2-3)Gal(b1-3)GalNAc6S
# Summary of the method: as §1
# [10] = biological target: Neu5Ac(a2-3)Gal(b1-3)GalNAc6S(b1-4)Gal(b1-4)Glc
# Summary of the method: as §1
# [11] = biological target: Neu5Ac(a2-3)Gal(b1-3)GlcNAc
# Summary of the method: as §1
# [12] = biological target: Neu5Ac(a2-3)Gal(b1-3)GlcNAc(b1-2)Man
# Summary of the method: as §1
# [13] = biological target: Neu5Ac(a2-3)Gal(b1-3)GlcNAc(b1-2)Man(a1-3)[GlcNAc(b1-4)][Neu5Ac(a2-3)Gal(b1-3)GlcNAc(b1-2)Man(a1-6)]Man(b1-4)GlcNAc(b1-4)GlcNAc
# Summary of the method: as §1
# [14] = biological target: Neu5Ac(a2-3)Gal(b1-3)GlcNAc(b1-2)Man(a1-3)[Neu5Ac(a2-3)Gal(b1-3)GlcNAc(b1-2)Man(a1-6)]Man(b1-4)GlcNAc(b1-4)GlcNAc
# Summary of the method: as §1
# [15] = biological target: Neu5Ac(a2-3)Gal(b1-3)GlcNAc(b1-3)Gal(b1-3)GlcNAc
# Summary of the method: as §1
# [16] = biological target: Neu5Ac(a2-3)Gal(b1-3)GlcNAc(b1-3)Gal(b1-4)Glc
# Summary of the method: as §1
# [17] = biological target: Neu5Ac(a2-3)Gal(b1-3)GlcNAc(b1-3)Gal(b1-4)GlcNAc
# Summary of the method: as §1
# [18] = biological target: Neu5Ac(a2-3)Gal(b1-3)GlcNAc(b1-3)GalNAc
# Summary of the method: as §1
# [19] = biological target: Neu5Ac(a2-3)Gal(b1-3)GlcNAc(b1-3)[Fuc(a1-3)[Gal(b1-4)]GlcNAc(b1-6)]Gal(b1-4)Glc
# Summary of the method: as §1
# [20] = biological target: Neu5Ac(a2-3)Gal(b1-3)GlcNAc(b1-4)Gal(b1-4)Glc
# Summary of the method: as §1
# [21] = biological target: Neu5Ac(a2-3)Gal(b1-3)GlcNAc(b1-6)GalNAc
# Summary of the method: as §1
# [22] = biological target: Neu5Ac(a2-3)Gal(b1-3)GlcNAc6S
# Summary of the method: as §1
# [23] = biological target: Neu5Ac(a2-3)Gal(b1-3)[Fuc(a1-3)]GlcN(b1-3)Gal(b1-4)Glc
# Summary of the method: as §1
# [24] = biological target: Neu5Ac(a2-3)Gal(b1-3)[Fuc(a1-4)]GlcNAc
# Summary of the method: as §1
# [25] = biological target: Neu5Ac(a2-3)Gal(b1-3)[Fuc(a1-4)]GlcNAc(b1-3)Gal(b1-3)[Fuc(a1-4)]GlcNAc
# Summary of the method: as §1
# [26] = biological target: Neu5Ac(a2-3)Gal(b1-3)[Fuc(a1-4)]GlcNAc(b1-3)Gal(b1-4)Glc
# Summary of the method: as §1
# [27] = biological target: Neu5Ac(a2-3)Gal(b1-3)[Fuc(a1-4)]GlcNAc(b1-3)Gal(b1-4)[Fuc(a1-3)]GlcNAc
# Summary of the method: as §1
# [28] = biological target: Neu5Ac(a2-3)Gal(b1-3)[GlcNAc(b1-6)]GalNAc
# Summary of the method: as §1
# [29] = biological target: Neu5Ac(a2-3)Gal(b1-3)[Neu5Ac(a2-3)Gal(b1-4)]GlcNAc
# Summary of the method: as §1
# [30] = biological target: Neu5Ac(a2-3)Gal(b1-3)[Neu5Ac(a2-6)]GalNAc
# Summary of the method: as §1
# [31] = biological target: Neu5Ac(a2-3)Gal(b1-3)[Neu5Ac(a2-6)]GalNAc(b1-4)Gal(b1-4)Glc
# Summary of the method: as §1
# [32] = biological target: Neu5Ac(a2-3)Gal(b1-3)[Neu5Ac(a2-6)]GlcNAc(b1-3)Gal(b1-4)Glc
# Summary of the method: as §1
# [33] = biological target: Neu5Ac(a2-3)Gal(b1-3)[Neu5Ac(a2-6)]GlcNAc(b1-3)[Fuc(a1-3)[Gal(b1-4)]GlcNAc(b1-6)]Gal(b1-4)Glc
# Summary of the method: as §1
# [34] = biological target: Neu5Ac(a2-3)Gal(b1-3)]Neu5Ac(a2-3)Gal(b1-4)]GlcNAc
# Summary of the method: as §1
# [35] = biological target: Neu5Ac(a2-3)Gal(b1-4)Glc
# Summary of the method: as §1
# [36] = biological target: Neu5Ac(a2-3)Gal(b1-4)GlcNAc
# Summary of the method: as §1
# [37] = biological target: Neu5Ac(a2-3)Gal(b1-4)GlcNAc(b1-2)Man
# Summary of the method: as §1
binder,measurement,setting,value
"PNA (Arachis hypogaea), P02872 (protein) MKPFCVFLTFFLLLAASSKKVDSAETVSFNFNSFSEGNPAINFQGDVTVLSNGNIQLTNLNKVNSVGRVLYAMPVRIWSSATGNVASFLTSFSFEMKDIKDYDPADGIIFFIAPEDTQIPAGSIGGGTLGVSDTKGAGHFVGVEFDTYSNSEYNDPPTDHVGIDVNSVDSVKTVPWNSVSGAVVKVTVIYDSSTKTLSVAVTNDNGDITTIAQVVDLKAKLPERVKFGFSASGSLGGRQIHLIRSWSFTSTLITTTRRSIDNNEKKIMNMASA",glycan array binding signal (z-score),[1],-0.195
same,glycan array binding signal (z-score),[2],-0.171
same,glycan array binding signal (z-score),[3],-0.195
same,glycan array binding signal (z-score),[4],-0.228
same,glycan array binding signal (z-score),[5],-0.112
same,glycan array binding signal (z-score),[6],-0.201
same,glycan array binding signal (z-score),[7],-0.153
same,glycan array binding signal (z-score),[8],-0.171
same,glycan array binding signal (z-score),[9],-0.167
same,glycan array binding signal (z-score),[10],-0.195
same,glycan array binding signal (z-score),[11],-0.179
same,glycan array binding signal (z-score),[12],-0.144
same,glycan array binding signal (z-score),[13],-0.353
same,glycan array binding signal (z-score),[14],-0.061
same,glycan array binding signal (z-score),[15],-0.182
same,glycan array binding signal (z-score),[16],-0.192
same,glycan array binding signal (z-score),[17],-0.167
same,glycan array binding signal (z-score),[18],-0.158
same,glycan array binding signal (z-score),[19],-0.195
same,glycan array binding signal (z-score),[20],-0.138
same,glycan array binding signal (z-score),[21],-0.269
same,glycan array binding signal (z-score),[22],-0.123
same,glycan array binding signal (z-score),[23],-0.195
same,glycan array binding signal (z-score),[24],-0.192
same,glycan array binding signal (z-score),[25],-0.129
same,glycan array binding signal (z-score),[26],-0.195
same,glycan array binding signal (z-score),[27],-0.205
same,glycan array binding signal (z-score),[28],-0.219
same,glycan array binding signal (z-score),[29],-0.21
same,glycan array binding signal (z-score),[30],-0.176
same,glycan array binding signal (z-score),[31],-0.195
same,glycan array binding signal (z-score),[32],-0.195
same,glycan array binding signal (z-score),[33],-0.23
same,glycan array binding signal (z-score),[34],-0.174
same,glycan array binding signal (z-score),[35],-0.178
same,glycan array binding signal (z-score),[36],-0.183
same,glycan array binding signal (z-score),[37],-0.181
